Results on 167 variants are retold here after the RNAGym collection of RNA variant scans (doi:10.7554/elife.90254).

B1: LINE1-mini (parent)
chain: GGCAGAGCUCAACACAGCGUGGCAAAGUGGCUGUGGCUAGACUGCC

Read counts are not given, so values of variants with three or more changes are uncertain.

Variants of B1 are the subject of this data set. In words: self-cleavage, relative activity (ratio to wild type); higher = more cleavage; in vitro, sequencing; the parent is a self-cleaving ribozyme.
In the case of A4U C18G U32A A39C G44A, the self-cleavage came to 0.01.
Turning to A4U C8A U20G G29A, the self-cleavage came to 0.22.
As to A4U U20A C37A, the self-cleavage was determined as 0.02.
Turning to A4U G22U C31A G40U G44A, the self-cleavage was 0.02.
For the variant A4U G22A C23U C37A, the self-cleavage came out at 0.
Consider A4U C8G A16C G19A, for which the self-cleavage was found to be 0.02.
For the variant A4U U28G U32G, the self-cleavage is 0.
Consider G5A A11G C13G C15A G40C, for which the self-cleavage worked out at 0.01.
To A4U G36U C42G C46U belongs 0.01; to A4U G5U A12C G33U U43C, 0.01.
On to G5A A11G G21U A24U, for which the self-cleavage was 0.
Turning to G5A A11C G21U G33C, the self-cleavage is 0.01.
Turning to G5A A12U G44C, the self-cleavage came out at 0.08.
With A4U C23U G33A the figure was 0.2.
Take A4U U9C C10A G21U: the self-cleavage turned out to be 0.03.
Take G5A A12C A26U G27U: the self-cleavage was found to be 0.
For A4U C15A G29A, the self-cleavage is 0.04.
In the case of G5A A6G C13A U20A C31U, the self-cleavage was found to be 0.03.
For the variant A4U C15G A24C G33C, the self-cleavage was determined as 0.2.
As to G5A A12G G27C, the self-cleavage worked out at 0.04.
Take G5A A6U C10U G17C A24U: the self-cleavage is 0.07.
G5A A12G C31U G36U: the self-cleavage was 0.
Consider A4U G17C C31A, for which the self-cleavage turned out to be 0.12.
To A4U U20A G22U C23G C45A belongs 0.11; to A4U G29A C42G, 0.07; to A4U G7U G29A C42U, 0.03.
Turning to G5A A11C C13G G17A C31G A39C, the self-cleavage was 0.01.
G5A A6G C18U G22U G29A U38G A39G G44C: the self-cleavage was 0.01.
As to A4U U28A U43C, the self-cleavage turned out to be 0.11.
Take A4U C37G U43G C46U: the self-cleavage was found to be 0.02.
With G5A A14C G21A G44C, the self-cleavage was 0.02.
A4U G17U A24G G29C: the self-cleavage came to 0.05.
Consider A4U C8A A24G A26C C31U C46A, for which the self-cleavage was 0.01.
Consider A4U C10G G29C, for which the self-cleavage came to 0.01.
For A4U G5A U9A A14C, the self-cleavage came to 0.12.
For the variant G5A A11C G36U, the self-cleavage was 0.
In the case of A4U U9C C23A, the self-cleavage came to 0.1.
To A4U C15A C18A U38A belongs 0.02.
As to G5A A6C C10A C15A, the self-cleavage amounted to 0.03.
To A4U C8G U9G belongs 0.05.
As for G5A A6C C10G A24U A26C C42A, the self-cleavage was 0.02.
To A4U C15G G36C G44C C46U belongs 0; to A4U C13G U28A G29A G36U G40A, 0.38; to A4U C13G G21A, 0.2.
In the case of A4U G21U U32C U34A C37A, the self-cleavage is 0.05.
Regarding A4U C10A A24C C31G, the self-cleavage is 0.02.
For A4U C13G C42G, the self-cleavage was 0.02.
For A4U G5A A39G, the self-cleavage came to 0.04.
A4U C10U G40A: the self-cleavage came out at 0.03.
As to A4U C13U A39C C45U, the self-cleavage worked out at 0.2.
A4U C31U G40A: the self-cleavage worked out at 0.04.
For the variant A4U U34C C37G, the self-cleavage was 0.02.
A4U C10A A11G G36U C42A: the self-cleavage turned out to be 0.
A4U G7U C23A: the self-cleavage was found to be 0.06.
Take A4U G33U G36U: the self-cleavage turned out to be 0.09.
Regarding A4U C18A C37A A39U, the self-cleavage is 0.04.
Take A4U C23A A25C G30C C37U: the self-cleavage worked out at 0.03.
Regarding G5A A6U A11C C31G U38G, the self-cleavage worked out at 0.01.
In the case of A4U G7U G22U C23G G40U, the self-cleavage stood at 0.37.
Turning to G5A A6C G17A C23U G35A C37A A41C, the self-cleavage worked out at 0.02.
For the variant A4U C8U G27A, the self-cleavage worked out at 0.04.
Take G5A A12C G17A U28A G29A G40U C46A: the self-cleavage is 0.03.
In the case of G5A A6U C13U G21C, the self-cleavage is 0.15.
For A4U C18G G33A, the self-cleavage amounted to 0.01.
As to G5A A6C G29A C42A, the self-cleavage stood at 0.02.
Take A4U G5A A6U G7U A26C G27U A41C: the self-cleavage stood at 0.07.
With A4U G7C C13A C15G G30C G40U, the self-cleavage amounted to 0.11.
In the case of A4U U20G A25C C37G A39U, the self-cleavage worked out at 0.01.
A4U G5U A11U G40U U43G: the self-cleavage worked out at 0.01.
Turning to A4U C10G U20C, the self-cleavage was 0.03.
Take A4U C13G A14C C18A: the self-cleavage is 0.04.
As for A4U C8U U9A G19A, the self-cleavage was found to be 0.09.
For G5A A6U C8A C10A, the self-cleavage was found to be 0.06.
For the variant G5A A12C G36A, the self-cleavage came to 0.17.
Regarding G5A A6G G17A C18U C46G, the self-cleavage worked out at 0.04.
To A4U C13A A14U G35U belongs 0.27.
With A4U U38G G40C the figure was 0.03; with A4U C15G U34G, 0; with A4U C31A G40U, 0.06.
As to A4U G21C G22A G29A C42G, the self-cleavage amounted to 0.01.
For A4U C15A A26G U43A, the self-cleavage was 0.01.
For G5A A14C U20G A41C C46G, the self-cleavage amounted to 0.06.
Take A4U C8U G17U: the self-cleavage came out at 0.05.
As for A4U C15A A16G C18G G22C, the self-cleavage was determined as 0.03.
G5A A11G C23U A26U A41U: the self-cleavage stood at 0.03.
Consider A4U C15G C18U, for which the self-cleavage is 0.04.
With A4U G7U C10A the figure was 0.07; with G5A A11C U43A, 0.02.
With A4U G7U C15U the figure was 0.04.
To A4U G5U G33C C45U belongs 0.04; to A4U C8G A16G G17A C18A C23A C37A U38C A41U, 0.12; to A4U C37A C46A, 0.22.
On to A4U C13U U38A, for which the self-cleavage stood at 0.43.
Consider A4U G19C C42G, for which the self-cleavage was found to be 0.02.
For A4U G5A A16G G17C G19A A24C, the self-cleavage turned out to be 0.07.
In the case of A4U C10G C13U C23G C37G, the self-cleavage was found to be 0.03.
Take A4U C15G A16G C18G G21U A26U G27U G40U C42A: the self-cleavage turned out to be 0.
Turning to A4U C10U A16C, the self-cleavage turned out to be 0.09.
To A4U U9G C37G belongs 0.02; to A4U G19C C45U, 0.02.
For A4U C15A G21U, the self-cleavage turned out to be 0.13.
Take G5A A6C C18A G19A G21A G36C C37A: the self-cleavage came to 0.07.
With A4U C13A C15G G35A G36A, the self-cleavage was 0.08.
Take A4U C23G C45A: the self-cleavage worked out at 0.04.
With A4U C8G A24U G36U G44U the figure was 0.02.
For the variant A4U G22C C31U, the self-cleavage was determined as 0.07.
Take A4U G5C C31A U32G A39C G44U: the self-cleavage was determined as 0.02.
With A4U C13U A14G G36C the figure was 0.03; with A4U C13A A14U G30C, 0.12; with A4U C10A A11G A39U, 0.01.
Take G5A A12U G40C: the self-cleavage stood at 0.01.
In the case of A4U G5A G27U C42A, the self-cleavage came out at 0.03.
On to A4U G19C G35A A41U, for which the self-cleavage worked out at 0.02.
With A4U G17C G19A A41G the figure was 0.1; with A4U G7C U28G G29A U38A A39U, 0.12; with A4U C10A G22U, 0.04.
For the variant A4U C13U C31G U43A, the self-cleavage amounted to 0.01.
Regarding A4U C31A G36C G40A, the self-cleavage amounted to 0.11.
As for A4U C8A G29U C37A, the self-cleavage stood at 0.82.
For A4U C23G C46G, the self-cleavage turned out to be 0.04.
Take G5A A12U C18G: the self-cleavage was found to be 0.04.
For G5A A6U G19U U28A C37A, the self-cleavage came to 0.01.
As for A4U G5A C37A G44U, the self-cleavage was determined as 0.02.
On to A4U G27A G29C C37G, for which the self-cleavage was determined as 0.
A4U C8A C13A C23G A39U: the self-cleavage was 0.17.
With G5A A11U C15A C18A G29U, the self-cleavage came out at 0.02.
Regarding A4U G21U G22A, the self-cleavage turned out to be 0.56.
For G5A A6C C10A G22A G27U G35A, the self-cleavage was 0.01.
For G5A A6G C8G G19U G36U, the self-cleavage was found to be 0.05.
For G5A A6U C18G, the self-cleavage came to 0.1.
To A4U G22U A39G G40C belongs 0.03.
As to A4U G22C G27A C46A, the self-cleavage stood at 0.14.
Regarding A4U G27C G33U C45G, the self-cleavage worked out at 0.06.
A4U G7U G21A G27C G36A: the self-cleavage stood at 0.37.
As to G5A A12U U28G G30U C31A U32A, the self-cleavage turned out to be 0.02.
Turning to G5A A6G U9A G36C C46G, the self-cleavage is 0.02.
On to A4U C18G G27C G35C G36U, for which the self-cleavage came out at 0.28.
Regarding A4U U9A C13A C42A, the self-cleavage was 0.2.
Turning to A4U G5A C15A G27U, the self-cleavage is 0.02.
For A4U U28A G30C, the self-cleavage was 0.26.
Regarding A4U C13U C31A C46U, the self-cleavage is 0.24.
To A4U C13G C23A G27A G29A G33U G35A belongs 0.07; to A4U G7C C10G C13A U20C U28A G33A C45U, 0.02; to A4U G7A G17C G21U G35U C37U C42A C46U, 0.19.
A4U G22A U38A: the self-cleavage was 0.02.
Regarding A4U C10G C15A C23G G29A A39G C46U, the self-cleavage amounted to 0.01.
For the variant A4U U34C U38G A41G, the self-cleavage came to 0.04.
As to A4U G5C G7C G19U U38A, the self-cleavage was 0.54.
For the variant G5A A11C C13U U28C, the self-cleavage came out at 0.05.
As to A4U G17U U32C, the self-cleavage is 0.03.
As for A4U G35C C37G A39C, the self-cleavage worked out at 0.14.
To A4U U20C A39C belongs 0.03; to A4U C8U C13G G44U, 0.98; to A4U C15A A26G, 0.05.
With A4U C31U A39U the figure was 0.02; with G5A A11G G35U A39U, 0.01; with A4U G7U C8U U9G, 0.04.
With A4U G7U G27A G30U C37G C42U U43A, the self-cleavage is 0.02.
On to A4U U28A C31G G33C U34G, for which the self-cleavage came to 0.03.
A4U C8U G17C U20C U28C C31U C37G A41U: the self-cleavage turned out to be 0.16.
With G5A A6G A14C A16G G29U G33A the figure was 0.12; with A4U C15G G29A G40U, 0.09; with A4U G7U G17A G29A G35U U38C, 0.15.
To G5A A11U A12U C15G G17C G36C belongs 0.01; to G5A A6C C10U U38A A41U, 0; to A4U C8G C23A G29C G35A G36A, 0.04.
Turning to A4U G17U G30A, the self-cleavage is 0.09.
